The list shows a part of the results. The full chains were built here from the parent and the listed change. Inactive controls read about 0.05.
B1: TEV protease; numbered along this chain (parent)
chain: MGESLFKGPRDYNPISSSICHLTNESDGHTTSLYGIGFGPFIITNKHLFRRNNGTLVVQSLHGVFKVKDTTTLQQHLVDGRDMIIIRMPKDFPPFPQKLKFREPQREERICLVTTNFQTKSMSSMVSDTSCTFPSGDGIFWKHWIQTKDGQCGSPLVSTRDGFIVGIHSASNFTNTNNYFTSVPKNFMELLTNQEAQQWVSGWRLNADSVLWGGHKVFMVKPEEPFQPVKEATQL

Variants of: B1
Test: raw area under fraction-flipped curve 0-4 h after induction (AUC4h, not background-subtracted), DNA-recorder readout of cleavage of the substrate (dimensionless); higher = more cleavage of the substrate by the protease variant
Conditions: temperature: 34 °C; time window: 0-4 h after rhamnose induction
Description: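 In vivo DNA recorder in E. coli TOP10(DE3) ΔrhaA at 34 °C. Each TEVp single-site mutant (parent TEVp 0) is paired with a single-site variant of the 7-mer TEVs (canonical ENLYFQ|S). The substrate sits between flexible linkers in a Bxb1-sfGFP-TEVs-SsrA fusion, so cleavage stabilises Bxb1 and speeds flipping of a recombination array, read by NGS. The value is the raw area under the fraction-flipped curve over 0-4 h after rhamnose induction (AUC4h), with ≥20 reads per time point. It is not background-subtracted; inactive controls average about 0.047.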
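Note: Bxb1 expression induced with 0.2% (w/v) L-rhamnose at OD600 near 0.5, cultures sampled hourly, flipped fraction per protease–substrate barcode pair counted by paired-end Illumina sequencing.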

In the case of I145K, the “area with substrate ENAYFQS” value is reported as 0.0542, the “area with substrate ENCYFQS” value is reported as 0.063 and the “area with substrate ENDYFQS” value is reported as 0.0622. The “area with substrate ENEYFQS” value was 0.0595, the “area with substrate ENFYFQS” value was 0.0448 and the “area with substrate ENGYFQS” value was 0.0727. The “area with substrate ENHYFQS” value was 0.0606, the “area with substrate ENKYFQS” value was 0.0589 and the “area with substrate ENMYFQS” value was 0.0625. For the same variant, the “area with substrate ENNYFQS” value was 0.0578, the “area with substrate ENQYFQS” value was 0.0417 and the “area with substrate ENRYFQS” value was 0.0431. For the same variant, the “area with substrate ENSYFQS” value was 0.055, the “area with substrate ENVYFQS” value was 0.0483 and the “area with substrate ENWYFQS” value was 0.0587. For the same variant, the “area with substrate ENYYFQS” value was 0.0768.

In the case of Q146C, the “area with substrate ENAYFQS” value is reported as 0.0793, the “area with substrate ENDYFQS” value is reported as 0.0595 and the “area with substrate ENEYFQS” value is reported as 0.0554. The “area with substrate ENFYFQS” value was 0.0514, the “area with substrate ENGYFQS” value was 0.0657 and the “area with substrate ENHYFQS” value was 0.054. For the same variant, the “area with substrate ENKYFQS” value was 0.0558, the “area with substrate ENNYFQS” value was 0.057 and the “area with substrate ENPYFQS” value was 0.065. For the same variant, the “area with substrate ENQYFQS” value was 0.0578, the “area with substrate ENRYFQS” value was 0.0624 and the “area with substrate ENSYFQS” value was 0.0522. The “area with substrate ENTYFQS” value was 0.0716, the “area with substrate ENVYFQS” value was 0.0847 and the “area with substrate ENWYFQS” value was 0.0564. For the same variant, the “area with substrate ENYYFQS” value was 0.0456.

With Q146K the “area with substrate ENAYFQS” value was 0.085, the “area with substrate ENCYFQS” value was 0.0723 and the “area with substrate ENDYFQS” value was 0.0681. The “area with substrate ENEYFQS” value was 0.0585, the “area with substrate ENFYFQS” value was 0.0625 and the “area with substrate ENGYFQS” value was 0.0384. For the same variant, the “area with substrate ENKYFQS” value was 0.0621, the “area with substrate ENMYFQS” value was 0.0809 and the “area with substrate ENNYFQS” value was 0.0519. The “area with substrate ENPYFQS” value was 0.0432, the “area with substrate ENQYFQS” value was 0.0623 and the “area with substrate ENRYFQS” value was 0.0529. For the same variant, the “area with substrate ENSYFQS” value was 0.0636, the “area with substrate ENTYFQS” value was 0.0446 and the “area with substrate ENVYFQS” value was 0.0861.

For Q146M, the “area with substrate ENAYFQS” value was 0.0721, the “area with substrate ENCYFQS” value was 0.0498 and the “area with substrate ENDYFQS” value was 0.0641. For the same variant, the “area with substrate ENEYFQS” value was 0.0392, the “area with substrate ENFYFQS” value was 0.0651 and the “area with substrate ENGYFQS” value was 0.0464. The “area with substrate ENHYFQS” value was 0.0617, the “area with substrate ENKYFQS” value was 0.0646 and the “area with substrate ENNYFQS” value was 0.0505. For the same variant, the “area with substrate ENPYFQS” value was 0.0313, the “area with substrate ENQYFQS” value was 0.066 and the “area with substrate ENRYFQS” value was 0.0515. For the same variant, the “area with substrate ENSYFQS” value was 0.158, the “area with substrate ENTYFQS” value was 0.0661 and the “area with substrate ENVYFQS” value was 0.0716.

In the case of Q146T, the “area with substrate ENAYFQS” value is reported as 0.0547, the “area with substrate ENCYFQS” value is reported as 0.0771 and the “area with substrate ENDYFQS” value is reported as 0.0711. For the same variant, the “area with substrate ENEYFQS” value was 0.0602, the “area with substrate ENFYFQS” value was 0.0354 and the “area with substrate ENGYFQS” value was 0.0808. For the same variant, the “area with substrate ENHYFQS” value was 0.0575, the “area with substrate ENKYFQS” value was 0.0571 and the “area with substrate ENNYFQS” value was 0.0545. The “area with substrate ENQYFQS” value was 0.0624, the “area with substrate ENRYFQS” value was 0.0599 and the “area with substrate ENSYFQS” value was 0.0665. For the same variant, the “area with substrate ENTYFQS” value was 0.0533, the “area with substrate ENVYFQS” value was 0.0714 and the “area with substrate ENYYFQS” value was 0.0542.

In the case of T147Q, the “area with substrate ENAYFQS” value is reported as 0.0675, the “area with substrate ENDYFQS” value is reported as 0.0707 and the “area with substrate ENEYFQS” value is reported as 0.0574. The “area with substrate ENFYFQS” value was 0.0548, the “area with substrate ENGYFQS” value was 0.0657 and the “area with substrate ENHYFQS” value was 0.0624. For the same variant, the “area with substrate ENIYFQS” value was 0.0718, the “area with substrate ENKYFQS” value was 0.0658 and the “area with substrate ENMYFQS” value was 0.0645. The “area with substrate ENNYFQS” value was 0.0614, the “area with substrate ENPYFQS” value was 0.0624 and the “area with substrate ENQYFQS” value was 0.061. The “area with substrate ENRYFQS” value was 0.0667, the “area with substrate ENSYFQS” value was 0.0614 and the “area with substrate ENVYFQS” value was 0.0631. For the same variant, the “area with substrate ENWYFQS” value was 0.0573.

For K148E, the “area with substrate ENAYFQS” value was 0.0709, the “area with substrate ENCYFQS” value was 0.07 and the “area with substrate ENDYFQS” value was 0.0546. The “area with substrate ENEYFQS” value was 0.0647, the “area with substrate ENFYFQS” value was 0.052 and the “area with substrate ENGYFQS” value was 0.0589. The “area with substrate ENIYFQS” value was 0.113, the “area with substrate ENMYFQS” value was 0.075 and the “area with substrate ENNYFQS” value was 0.0551. For the same variant, the “area with substrate ENQYFQS” value was 0.0643, the “area with substrate ENRYFQS” value was 0.0465 and the “area with substrate ENSYFQS” value was 0.0533. For the same variant, the “area with substrate ENTYFQS” value was 0.0708, the “area with substrate ENVYFQS” value was 0.0733 and the “area with substrate ENYYFQS” value was 0.0532.

In the case of K148Q, the “area with substrate ENAYFQS” value is reported as 0.0681, the “area with substrate ENCYFQS” value is reported as 0.0662 and the “area with substrate ENDYFQS” value is reported as 0.0628. The “area with substrate ENEYFQS” value was 0.0702, the “area with substrate ENFYFQS” value was 0.0636 and the “area with substrate ENIYFQS” value was 0.1. For the same variant, the “area with substrate ENQYFQS” value was 0.0565, the “area with substrate ENRYFQS” value was 0.0551 and the “area with substrate ENSYFQS” value was 0.0498. The “area with substrate ENTYFQS” value was 0.0488 and the “area with substrate ENVYFQS” value was 0.0629.

In the case of K148R, the “area with substrate ENAYFQS” value is reported as 0.0572, the “area with substrate ENDYFQS” value is reported as 0.072 and the “area with substrate ENEYFQS” value is reported as 0.0741. The “area with substrate ENFYFQS” value was 0.08, the “area with substrate ENGYFQS” value was 0.0551 and the “area with substrate ENIYFQS” value was 0.102. For the same variant, the “area with substrate ENKYFQS” value was 0.0974, the “area with substrate ENMYFQS” value was 0.0712 and the “area with substrate ENNYFQS” value was 0.0454. For the same variant, the “area with substrate ENQYFQS” value was 0.0513, the “area with substrate ENSYFQS” value was 0.0641 and the “area with substrate ENVYFQS” value was 0.0605. For the same variant, the “area with substrate ENYYFQS” value was 0.0657.

With D149Y the “area with substrate ENAYFQS” value was 0.0528, the “area with substrate ENCYFQS” value was 0.0697 and the “area with substrate ENDYFQS” value was 0.0612. For the same variant, the “area with substrate ENEYFQS” value was 0.0591, the “area with substrate ENFYFQS” value was 0.0555 and the “area with substrate ENHYFQS” value was 0.0542. For the same variant, the “area with substrate ENIYFQS” value was 0.0585, the “area with substrate ENKYFQS” value was 0.0639 and the “area with substrate ENNYFQS” value was 0.0514. The “area with substrate ENPYFQS” value was 0.0548, the “area with substrate ENQYFQS” value was 0.0585 and the “area with substrate ENRYFQS” value was 0.0521. For the same variant, the “area with substrate ENSYFQS” value was 0.0463, the “area with substrate ENTYFQS” value was 0.0469 and the “area with substrate ENVYFQS” value was 0.0615. The “area with substrate ENWYFQS” value was 0.0488 and the “area with substrate ENYYFQS” value was 0.0703.

For G150H, the “area with substrate ENAYFQS” value was 0.0696, the “area with substrate ENCYFQS” value was 0.0572 and the “area with substrate ENDYFQS” value was 0.0681. The “area with substrate ENEYFQS” value was 0.0764, the “area with substrate ENFYFQS” value was 0.062 and the “area with substrate ENGYFQS” value was 0.0606. The “area with substrate ENHYFQS” value was 0.0597, the “area with substrate ENIYFQS” value was 0.0649 and the “area with substrate ENKYFQS” value was 0.0693. For the same variant, the “area with substrate ENNYFQS” value was 0.0524, the “area with substrate ENPYFQS” value was 0.0688 and the “area with substrate ENQYFQS” value was 0.057. The “area with substrate ENRYFQS” value was 0.0595, the “area with substrate ENSYFQS” value was 0.057 and the “area with substrate ENTYFQS” value was 0.0548. The “area with substrate ENVYFQS” value was 0.0557 and the “area with substrate ENWYFQS” value was 0.0318.

Reference: the supplement of paper PMC12217912
